Here are results for 34 compounds from the supplement of paper PMC4723716.

± gives the uncertainty stated by the source. Over roughly 9,900 compounds, “viability index relative to DMSO control” has its median near 1; the lowest 2% begin near 0.85. This is one part of the list.

In the experiment the test system is Plasmodium falciparum NF54 stage V gametocytes. Briefly: viability index relative to DMSO control (fraction); higher = less gametocyte killing. Conditions: 2.5 µM, library set: Broad Institute DOS, incubation time: 72 h. The method, then:
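Broad DOS informer set and blood-stage-active DOS compounds screened in duplicate at 2.5 µM against P. falciparum NF54 stage V gametocytes with the serum-free one-step SaLSSA (1536-well): 72 h at 37 °C under low oxygen, then saponin lysis and MitoTracker Red CMXRos staining, with high-content imaging. Viability index = viable-object count divided by the plate mean of DMSO wells (0 = killed, about 1 = inactive).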

In turn, `CCCN1[C@H](CO)[C@H](c2ccc(C#CC(C)C)cc2)[C@@H]1CN(C)S(C)(=O)=O` showed a viability index of 0.996 ± 0.086.
Consider `C[C@@H]1CN([C@@H](C)CO)C(=O)c2cccc(NC(=O)Nc3ccc(C(F)(F)F)cc3)c2O[C@H]1CN(C)S(=O)(=O)c1cn(C)cn1`, for which the viability index was determined as 0.952 ± 0.097.
Under `O=C(CN1CCOCC1)N[C@H]1CC[C@H](CCn2cc(C3CC3)nn2)O[C@@H]1CO` stands 1.16 ± 0.021; under `C[C@H](CO)N1C[C@H](C)[C@@H](CN(C)C(=O)[C@@H](Cc2ccccc2)N(C)C)OCc2ccccc2-c2ccccc2C1=O`, 0.997 ± 0.086; under `COc1cccc(-c2ccc3c(c2)[C@@H]2[C@@H](CCN2C(=O)c2ccccn2)[C@@H](CO)N3)c1`, 1.01 ± 0.028.
The result for `CN1C(=O)c2cc(NC(=O)Nc3ccc(Cl)cc3)ccc2OC[C@H]2O[C@H](CC(=O)NCCN3CCCCC3)CC[C@@H]21` reads 0.941 ± 0.046.
For the compound `CN(C)C(=O)c1cccc(-c2ccc([C@H]3[C@@H](CO)N4CCCCN(CC5CCOCC5)C[C@H]34)cc2)c1`, the viability index turned out to be 1.07 ± 0.014.
Under `C[C@@H]1CN([C@@H](C)CO)S(=O)(=O)c2ccc(C#Cc3ccccc3F)cc2O[C@H]1CN(C)C(=O)Cc1cccnc1` stands 0.947 ± 0.016.
In turn, `C[C@@H]1CN([C@H](C)CO)C(=O)c2cc(NS(=O)(=O)c3cccs3)ccc2O[C@@H](C)CCCCO[C@@H]1CN(C)Cc1ccc(Cl)c(Cl)c1` came in with a viability index of 0.896 ± 0.099.
`CS(=O)(=O)N1CC(=O)N2[C@H](C1)[C@H](c1ccc(C#Cc3ccc(F)cc3)cc1)[C@@H]2CO` had a viability index of 1.04 ± 0.027.
Under `COCC(=O)Nc1ccc2c(c1)C(=O)N(C)C[C@H](OC)[C@@H](C)CN(CCc1ccccc1)[C@H](C)CO2` stands 0.978 ± 0.01.
On to `O=C(C[C@@H]1CC[C@H]2NC[C@@H](O)COC[C@@H]2O1)Nc1ccc(-c2ccccc2)cc1`, for which the viability index turned out to be 0.826 ± 0.077.
For the compound `CO[C@@H]1CN(C)C(=O)c2ccc(NS(=O)(=O)c3ccc(C)cc3)cc2OC[C@@H](C)N(C)C[C@H]1C`, the viability index was 1.09 ± 0.02.
Under `C[C@@H](NC(=O)C[C@H]1C[C@H]2c3cc(NS(=O)(=O)c4ccc(F)cc4)ccc3O[C@H]2[C@H](CO)O1)c1ccccc1` stands 1.077 ± 0.01.
Under `O=C(Nc1ccc(F)cc1)N1CC(=O)N2[C@H](CO)[C@@H](c3ccc(-c4cccc(F)c4)cc3)[C@H]2C1` stands 1.05 ± 0.064.
Under `O=C(O)[C@H]1[C@H](CO)[C@H]2Cn3c(cccc3=O)[C@H]2N1C(=O)NC1CCCC1` stands 0.9945 ± 0.0021; under `COCC(=O)Nc1ccc2c(c1)C(=O)N(C)[C@@H]1CC[C@@H](CC(=O)N3CCc4ccccc4C3)O[C@@H]1CO2`, 1.03 ± 0.051; under `C[C@H](CO)N1C[C@H](C)[C@H](CN(C)C(=O)Nc2ccc(C(F)(F)F)cc2)Oc2ncc(C3=CCCC3)cc2C1=O`, 0.9836 ± 0.0045.
Compound `CCN(C[C@H]1[C@H](c2ccc(-c3cccnc3)cc2)[C@H](CO)N1C(C)=O)C(C)=O` registered a viability index of 1.02 ± 0.041.
Under `COc1cccc(C(=O)N2C[C@@H]3[C@H](c4ccccc42)[C@H](CO)N3C(=O)c2cccc(F)c2)c1` stands 1.07 ± 0.072; under `Cc1noc(C)c1S(=O)(=O)Nc1ccc2c(c1)C(=O)N([C@H](C)CO)C[C@H](C)[C@@H](CN(C)Cc1ccc(C(=O)O)cc1)OCCCC[C@H](C)O2`, 1.04 ± 0.037.
Compound `COc1ccc2c3c([nH]c2c1)[C@H](CO)N(C[C@]31CCN(CC1)C(=O)c1ccncc1)C(=O)C1CC1` displayed a viability index of 0.972 ± 0.024.
Under `COCC(=O)N1[C@H](C#N)[C@H](c2ccccc2C2=CCCC2)[C@@H]1CO` stands 1.05 ± 0.065; under `CC(C)NC(=O)Nc1ccc2c(c1)C(=O)N(C)[C@@H]1CC[C@@H](CC(=O)NCc3ccc(F)cc3)O[C@H]1CO2`, 1.05 ± 0.0075.
`CO[C@@H]1CN(C)C(=O)c2ccc(NC(=O)Nc3ccccc3Cl)cc2OC[C@H](C)NC[C@@H]1C`: the viability index was 1 ± 0.032.
The result for `C[C@@H]1CN([C@@H](C)CO)C(=O)c2cccc(NC(=O)c3cnccn3)c2O[C@@H]1CN(C)C(=O)NC1CCCCC1` reads 1.04 ± 0.085; that for `O=C(c1ccc2c(c1)OCO2)N1C[C@@H]2N[C@H](C1)[C@H]2c1ccc(/C=C/c2ccccc2)cc1`, 1.05 ± 0.017; that for `CCN1[C@@H]2c3ccc(-c4ccccc4OC)c(=O)n3C[C@H]1[C@H](CO)[C@H]2C(=O)NCc1ccccn1`, 1.018 ± 0.0036.
The compound `OC[C@@H]1[C@H](c2ccc(C#CC3(O)CCCC3)cc2)[C@@H]2CN(Cc3cncnc3)CCCCN12` had a viability index of 1.07 ± 0.035.
As for `C[C@@H]1CN([C@@H](C)CO)C(=O)CCCn2nncc2CO[C@H]1CN(C)CC1CCCCC1`, the viability index was found to be 0.986 ± 0.07.
As to `CN(C[C@H]1[C@@H](c2ccc(C3=CCCC3)cc2)[C@@H](CO)N1CCC(F)(F)F)S(C)(=O)=O`, the viability index came out at 1.02 ± 0.046.
The result for `CN1C(=O)c2cc(NC(=O)Nc3ccc(Cl)cc3)ccc2OC[C@@H]2O[C@@H](CC(=O)NCCN3CCCCC3)CC[C@H]21` reads 0.838 ± 0.04.
The result for `COc1ccc(S(=O)(=O)Nc2ccc3c(c2)C(=O)N([C@H](C)CO)C[C@@H](C)[C@H](CN(C)Cc2ccc(C(F)(F)F)cc2)OCCCC[C@H](C)O3)cc1` reads 0.951 ± 0.019; that for `COc1ccc2c3c([C@H](CO)N(CC4CC4)C[C@]33CCN(CC3)C(=O)NC3CCCC3)n(C)c2c1`, 0.955 ± 0.05.
